# According to the supplement of paper PMC7826260:
# This is one part of the list. The data describe in vitro nicking of single-stranded DNA by Rep domains at 3 µM enzyme and 37 °C for 1 h; the strands have 90 letters, of which the middle is given. A value is the log2 ratio of uncut reads to the pool without enzyme; strong cutting gives strongly negative numbers. There is no active / inactive call. The scaling is to total reads, so uncut sequences can rise above 0 when many others are cut.
# Experiments:
# Experiment in all cases: uncleaved DNA left, log2 of reads against the no-enzyme library (log2 ratio); higher = less cleavage (more negative = more Rep cleavage of the k-mer); sequences stand for … in CTCGTCCG…ACCGGAGA
# [1] = tested on: T1, Rep nickase domain of Muscovy duck circovirus
# T1 sequence (Rep 1-111, printed without the tag): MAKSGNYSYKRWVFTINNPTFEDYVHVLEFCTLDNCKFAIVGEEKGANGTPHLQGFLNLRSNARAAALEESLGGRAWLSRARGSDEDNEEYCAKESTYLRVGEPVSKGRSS
# Protocol: (§1)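 A pool of 90-nt single-stranded DNAs with seven random bases just before the constant AC of the nick site (name = the seven bases) was cut by 3 µM recombinant His6-SUMO-tagged Rep nickase domain (300 nM DNA, 50 mM HEPES pH 8.0, 50 mM NaCl, 1 mM MnCl2, 1 h, 37 °C, three replicates). Uncut DNA was amplified and sequenced.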
# [2] = tested on: T2, Rep nickase domain of banana bunchy top virus
# T2 sequence (Rep 1-94, printed without the tag): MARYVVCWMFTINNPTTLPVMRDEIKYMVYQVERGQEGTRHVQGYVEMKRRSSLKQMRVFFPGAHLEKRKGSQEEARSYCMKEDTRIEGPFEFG
# Protocol: as §1
# [3] = tested on: T3, Rep nickase domain of cabbage leaf curl virus
# T3 sequence (Rep 1-116, printed without the tag): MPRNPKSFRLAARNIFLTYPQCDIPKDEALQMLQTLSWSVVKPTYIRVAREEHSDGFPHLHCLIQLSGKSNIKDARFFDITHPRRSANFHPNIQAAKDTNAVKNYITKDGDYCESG
# Protocol: as §1
# [4] = tested on: T4, Rep nickase domain of chickpea chlorotic dwarf virus
# T4 sequence (Rep 1-124, printed without the tag): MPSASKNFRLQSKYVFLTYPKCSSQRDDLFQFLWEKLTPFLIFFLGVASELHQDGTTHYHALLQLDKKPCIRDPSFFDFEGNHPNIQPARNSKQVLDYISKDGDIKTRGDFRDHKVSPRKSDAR
# Protocol: as §1
# [5] = tested on: T5, Rep nickase domain of faba bean necrotic yellows virus
# T5 sequence (Rep 1-98, printed without the tag): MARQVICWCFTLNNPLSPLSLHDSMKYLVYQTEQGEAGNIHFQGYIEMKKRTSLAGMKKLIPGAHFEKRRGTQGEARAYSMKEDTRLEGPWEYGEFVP
# Protocol: as §1
# [6] = tested on: T6, Rep nickase domain of maize striate mosaic virus
# T6 sequence (Rep 1-117, printed without the tag): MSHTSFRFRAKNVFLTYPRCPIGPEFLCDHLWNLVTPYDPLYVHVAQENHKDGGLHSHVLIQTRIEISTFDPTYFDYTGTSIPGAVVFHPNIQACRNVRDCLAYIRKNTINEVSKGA
# Protocol: as §1
# [7] = tested on: T7, Rep nickase domain of porcine circovirus 2
# T7 sequence (Rep 2-116, printed without the tag): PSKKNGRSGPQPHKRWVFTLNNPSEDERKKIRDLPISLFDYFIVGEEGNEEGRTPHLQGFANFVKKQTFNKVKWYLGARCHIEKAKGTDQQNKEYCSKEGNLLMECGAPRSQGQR
# Protocol: as §1
# [8] = tested on: T8, Rep nickase domain of tomato golden mosaic virus
# T8 sequence (Rep 1-124, printed without the tag): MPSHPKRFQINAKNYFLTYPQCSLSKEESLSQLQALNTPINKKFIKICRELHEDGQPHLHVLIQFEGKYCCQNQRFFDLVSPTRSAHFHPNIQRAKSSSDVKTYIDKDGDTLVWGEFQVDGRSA
# Protocol: as §1
# [9] = tested on: T9, Rep nickase domain of tomato yellow leaf curl virus
# T9 sequence (Rep 1-136, printed without the tag): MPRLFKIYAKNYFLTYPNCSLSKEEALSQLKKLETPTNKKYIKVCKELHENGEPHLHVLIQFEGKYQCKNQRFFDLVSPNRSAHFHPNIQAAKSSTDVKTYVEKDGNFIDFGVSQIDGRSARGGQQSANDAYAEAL
# Protocol: as §1
# [10] = tested on: T10, Rep nickase domain of wheat dwarf virus
# T10 sequence (Rep 1-137, printed without the tag): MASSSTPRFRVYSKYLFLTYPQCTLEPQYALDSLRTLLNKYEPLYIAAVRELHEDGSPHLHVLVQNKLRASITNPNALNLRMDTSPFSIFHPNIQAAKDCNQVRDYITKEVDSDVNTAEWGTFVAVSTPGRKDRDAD
# Protocol: as §1
Sequence,uncleaved DNA left (log2) [1],uncleaved DNA left (log2) [2],uncleaved DNA left (log2) [3],uncleaved DNA left (log2) [4],uncleaved DNA left (log2) [5],uncleaved DNA left (log2) [6],uncleaved DNA left (log2) [7],uncleaved DNA left (log2) [8],uncleaved DNA left (log2) [9],uncleaved DNA left (log2) [10]
ACCGTAT,-0.0195,-0.122,-0.134,-0.37,-0.0642,-0.476,-0.000429,0.0589,-0.165,-0.151
TTGCAAC,0.037,0.0174,-0.441,-1.16,0.077,-0.978,0.0443,-0.0827,0.0883,-0.00871
TAATATC,-0.112,-0.155,-4,-3.46,-0.066,-3.48,-0.908,-3.94,-0.382,-3.88
CTCTACC,-0.234,-1.58e-05,-0.318,-2.27,0.0553,-0.702,-0.969,-0.0366,-0.126,-0.161
CTTCGTC,-0.0267,-0.0194,-0.201,-0.531,-0.192,-0.943,-0.117,-0.211,-0.00706,-0.115
ACGACTG,0.0844,0.0622,0.024,0.663,-0.000432,1.77,0.187,0.0469,-0.0332,0.136
TCTGCAC,-0.1,-0.0832,-0.333,-0.703,-0.0869,-1.12,0.0198,-0.144,-0.196,-0.265
ACGAAGA,-0.0446,0.0429,-0.0622,-0.0457,0.125,-0.973,0.155,0.0552,-0.0928,0.0197
ACATGGC,-0.0615,-0.0286,-0.825,-0.556,0.0115,-1.17,0.0956,-0.0253,0.0802,-0.0838
AAGAACA,-0.138,-0.0221,-0.152,-2.09,-0.149,-0.268,-1.09,-0.113,-0.156,-0.0447
TTAATTA,0.089,0.056,0.35,-0.691,0.185,0.0544,-0.0592,0.0538,0.0858,0.118
TTTCTGT,-0.0291,-0.204,-0.1,-0.58,-0.121,-0.615,-0.214,-0.104,-0.203,-0.122
TTGGTAC,-0.14,-0.0594,0.231,0.0883,-0.065,0.469,-0.0737,-0.0767,0.0652,-0.0605
ATGTGAA,0.0726,-0.00972,0.0983,0.0829,0.0797,-0.074,-0.0893,0.0318,-0.035,0.0698
TGGTTGA,0.195,-0.0193,0.277,0.34,0.133,-0.0687,0.00985,0.023,0.05,0.0819
GAAGATG,-0.00415,-0.112,0.197,1.19,-0.103,1.35,0.147,0.0226,-0.231,0.0488
GGAAGAG,0.0911,0.111,0.573,1.45,0.0322,1.06,0.33,0.0812,0.00752,0.152
ACATAGG,0.0779,0.129,-0.701,-0.382,0.0646,-1.07,0.204,0.0351,0.00821,-0.0218
ATGGAGT,0.0129,0.00997,0.121,0.967,-0.065,0.968,0.122,-0.00553,-0.211,-0.0444
GCTCTCT,-0.0997,-0.0328,-0.0779,-1.14,-0.173,-0.0415,-0.303,-0.0718,-0.115,0.00291
TTGAGCT,0.0516,0.0318,-0.187,-1.19,0.0437,-1.02,-0.00687,-0.125,-0.0619,-0.132
CTATCGA,0.103,0.0814,-0.483,-0.608,0.0849,-1.13,0.0295,-0.0286,-0.016,-0.00934
CTCGGTC,0.125,-0.021,0.181,0.0364,-0.0248,-0.347,0.0594,0.000379,-0.000458,0.0128
CAACGTA,-0.0561,-0.119,-0.389,-2.12,0.00403,-0.864,-0.198,-0.102,-0.114,-0.152
CTCATCT,-0.00102,0.0177,-0.11,-2.21,-0.0145,-0.831,-0.109,-0.00689,0.0941,0.0269
CGAGTCT,0.0849,0.0226,-0.0997,-0.898,0.184,-0.066,0.00652,0.107,0.0441,0.0852
GGCGGCC,-0.0523,0.0793,0.159,0.864,-0.0599,1.09,0.0367,-0.0221,-0.141,-0.0218
TATTCAC,-1.07,-0.294,0.0974,-0.356,-0.0852,-0.471,-0.554,-0.174,-0.0392,-0.0447
GTGATAA,0.145,0.161,0.438,1.05,-0.0674,1.87,0.132,0.123,0.203,0.249
